# The supplement of paper PMC8728848
# This is one part of the list.
# B1: PX9961X-pdi-531-24-531 (Parabacteroides distasonis) (protein)
# chain: DLTEEIHSSVIAENYYNNAGEVMAAMMRPWGHFCGTMQVAQSPWSCNELSSDCAAWPQKGRHGYDNGDWIRLHRHQWIPTDGQVVDAWKKLFEGIGYANNFLTDTENIDFEALQVPMSKAQAQAEMRVYRAYCYWYVMDMFGTAPICEKIGEINPSSKSRAELFAWIEKELNESIPSLSESKTETYGRVSKWGAYALLARLYLNAEIYTGQARWDDCIAACDELAKGGFALDKKWNDTFRADNDKRSTEIIWSIVYDEVYAKGMGWYQRWLHYAHQTGWDLQSGPWNGLVTQPTFYDSFADNDLRKIEGFLIGKQYPRKVDENGNYYYDTTAEPLKGSEEYNGQDLVFVNYIKSMTEGEENSGARSIKYEIQPGTTGDMNNDWVMFRYSEVIYNKAEALMRKNGGKATQEVVDMINSVRQRSFKAEDWEKAKYTTATLTMDEFLAEKGREFAFEGIRRTDLVRFNKFVTTSWWDKTASNEPKRNIFPIPQRQLDANANLSPNEANSLF
# What was measured:
# Assay in all cases: glycan array binding signal (z-score within array); higher = stronger binding
# Conditions in all cases: glycan notation: IUPAC condensed, linker removed
# [1] = target: Neu5Ac(a2-6)GlcNAc(b1-4)GlcNAc(b1-4)GlcNAc
# In short: (§1)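 The binding signal is a Z-score computed within each array. Data were drawn from 3228 arrays in the Consortium for Functional Glycomics database, restricted to those with a known protein sequence. Scores were averaged over arrays of the same protein sequence at different concentrations or buffers, and over linkers, and negative values can be taken as non-binding.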
# Neu5Ac(a2-8)Neu5Ac = target: Neu5Ac(a2-8)Neu5Ac
# In short: as §1
# [2] = target: Neu5Ac(a2-8)Neu5Ac(a2-3)Gal(b1-3)GalNAc(b1-4)[Neu5Ac(a2-3)]Gal(b1-4)Glc
# In short: as §1
# [3] = target: Neu5Ac(a2-8)Neu5Ac(a2-3)Gal(b1-3)GalNAc(b1-4)[Neu5Ac(a2-8)Neu5Ac(a2-3)]Gal(b1-4)Glc
# In short: as §1
# [4] = target: Neu5Ac(a2-8)Neu5Ac(a2-3)Gal(b1-4)Glc
# In short: as §1
# [5] = target: Neu5Ac(a2-8)Neu5Ac(a2-3)Gal(b1-4)GlcNAc
# In short: as §1
# [6] = target: Neu5Ac(a2-8)Neu5Ac(a2-3)[Gal(b1-3)GalNAc(b1-4)]Gal(b1-4)Glc
# In short: as §1
# [7] = target: Neu5Ac(a2-8)Neu5Ac(a2-3)[GalNAc(b1-4)]Gal(b1-4)Glc
# In short: as §1
# [8] = target: Neu5Ac(a2-8)Neu5Ac(a2-8)Neu5Ac
# In short: as §1
# [9] = target: Neu5Ac(a2-8)Neu5Ac(a2-8)Neu5Ac(a2-3)Gal(b1-4)Glc
# In short: as §1
# [10] = target: Neu5Ac(a2-8)Neu5Ac(a2-8)Neu5Ac(a2-3)[Gal(b1-3)GalNAc(b1-4)]Gal(b1-4)Glc
# In short: as §1
# [11] = target: Neu5Ac(a2-8)Neu5Ac(a2-8)Neu5Ac(a2-3)[GalNAc(b1-4)]Gal(b1-4)Glc
# In short: as §1
# [12] = target: Neu5Ac(a2-8)Neu5Ac(a2-8)Neu5Ac(a2-8)Neu5Ac(a2-3)[GalNAc(b1-4)]Gal(b1-4)Glc
# In short: as §1
# [13] = target: Neu5Ac(a2-8)Neu5Gc(a2-3)Gal(b1-4)GlcNAc
# In short: as §1
# [14] = target: Neu5Ac(b2-6)Gal(b1-4)GlcNAc
# In short: as §1
# Neu5Ac(b2-6)GalNAc = target: Neu5Ac(b2-6)GalNAc
# In short: as §1
# [15] = target: Neu5Ac9Ac(a2-3)Gal(b1-3)GlcNAc
# In short: as §1
# [16] = target: Neu5Ac9Ac(a2-3)Gal(b1-4)GlcNAc
# In short: as §1
# [17] = target: Neu5Ac9Ac(a2-6)Gal(b1-4)GlcNAc
# In short: as §1
# [18] = target: Neu5Gc(a2-3)Gal(b1-3)GlcNAc
# In short: as §1
# [19] = target: Neu5Gc(a2-3)Gal(b1-3)[Fuc(a1-4)]GlcNAc
# In short: as §1
# Neu5Gc(a2-3)Gal(b1-4)Glc = target: Neu5Gc(a2-3)Gal(b1-4)Glc
# In short: as §1
# [20] = target: Neu5Gc(a2-3)Gal(b1-4)GlcNAc
# In short: as §1
# [21] = target: Neu5Gc(a2-3)Gal(b1-4)GlcNAc(b1-3)Gal(b1-4)GlcNAc(b1-2)Man(a1-3)[Neu5Gc(a2-3)Gal(b1-4)GlcNAc(b1-3)Gal(b1-4)GlcNAc(b1-2)Man(a1-6)]Man(b1-4)GlcNAc(b1-4)GlcNAc
# In short: as §1
# [22] = target: Neu5Gc(a2-3)Gal(b1-4)[Fuc(a1-3)]GlcNAc
# In short: as §1
# [23] = target: Neu5Gc(a2-6)Gal(b1-4)GlcNAc
# In short: as §1
# Neu5Gc(a2-6)GalNAc = target: Neu5Gc(a2-6)GalNAc
# In short: as §1
# [24] = target: Neu5Gc(a2-8)Neu5Ac(a2-3)Gal(b1-4)GlcNAc
# In short: as §1
# [25] = target: Neu5Gc(a2-8)Neu5Gc(a2-3)Gal(b1-4)GlcNAc
# In short: as §1
# [26] = target: Neu5Gc(a2-8)Neu5Gc(a2-3)Gal(b1-4)GlcNAc(b1-3)Gal(b1-4)GlcNAc
# In short: as §1
# [27] = target: Neu5Gc(a2-8)Neu5Gc(a2-6)Gal(b1-4)GlcNAc
# In short: as §1
# [28] = target: Neu5Gc(b2-6)Gal(b1-4)GlcNAc
# In short: as §1
binder,measurement,setting,value
B1,glycan array binding signal (z-score),[1],-0.245
same,glycan array binding signal (z-score),Neu5Ac(a2-8)Neu5Ac,-0.38
same,glycan array binding signal (z-score),[2],0.572
same,glycan array binding signal (z-score),[3],-0.72
same,glycan array binding signal (z-score),[4],-0.472
same,glycan array binding signal (z-score),[5],-0.116
same,glycan array binding signal (z-score),[6],-0.002
same,glycan array binding signal (z-score),[7],0.005
same,glycan array binding signal (z-score),[8],-0.468
same,glycan array binding signal (z-score),[9],-0.747
same,glycan array binding signal (z-score),[10],-0.475
same,glycan array binding signal (z-score),[11],0.243
same,glycan array binding signal (z-score),[12],-0.294
same,glycan array binding signal (z-score),[13],14.4
same,glycan array binding signal (z-score),[14],0.837
same,glycan array binding signal (z-score),Neu5Ac(b2-6)GalNAc,0.643
same,glycan array binding signal (z-score),[15],-0.852
same,glycan array binding signal (z-score),[16],0.639
same,glycan array binding signal (z-score),[17],-0.032
same,glycan array binding signal (z-score),[18],-0.815
same,glycan array binding signal (z-score),[19],-0.094
same,glycan array binding signal (z-score),Neu5Gc(a2-3)Gal(b1-4)Glc,-0.594
same,glycan array binding signal (z-score),[20],-1
same,glycan array binding signal (z-score),[21],-0.117
same,glycan array binding signal (z-score),[22],-0.648
same,glycan array binding signal (z-score),[23],0.505
same,glycan array binding signal (z-score),Neu5Gc(a2-6)GalNAc,-0.693
same,glycan array binding signal (z-score),[24],-0.389
same,glycan array binding signal (z-score),[25],-0.231
same,glycan array binding signal (z-score),[26],-0.598
same,glycan array binding signal (z-score),[27],-0.544
same,glycan array binding signal (z-score),[28],-0.272
